Experimental data: publication PMC4336329 (PLoS ONE, 2015)
About 14,000 (4.5%) of roughly 310,000 compounds showed an effect of 50% or more. Effects have a minus sign here. This is one part of the list.

biological target: human ether-à-go-go-related gene (hERG) potassium channel (human, UniProt Q12809); assay: primary screen, population patch clamp on CHO cells stably expressing hERG
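Note: peak tail current of the secondary pulse compared with the same well before compound.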

human ether-à-go-go-related gene (hERG) potassium channel, sequence (Q12809 whole entry, looked up): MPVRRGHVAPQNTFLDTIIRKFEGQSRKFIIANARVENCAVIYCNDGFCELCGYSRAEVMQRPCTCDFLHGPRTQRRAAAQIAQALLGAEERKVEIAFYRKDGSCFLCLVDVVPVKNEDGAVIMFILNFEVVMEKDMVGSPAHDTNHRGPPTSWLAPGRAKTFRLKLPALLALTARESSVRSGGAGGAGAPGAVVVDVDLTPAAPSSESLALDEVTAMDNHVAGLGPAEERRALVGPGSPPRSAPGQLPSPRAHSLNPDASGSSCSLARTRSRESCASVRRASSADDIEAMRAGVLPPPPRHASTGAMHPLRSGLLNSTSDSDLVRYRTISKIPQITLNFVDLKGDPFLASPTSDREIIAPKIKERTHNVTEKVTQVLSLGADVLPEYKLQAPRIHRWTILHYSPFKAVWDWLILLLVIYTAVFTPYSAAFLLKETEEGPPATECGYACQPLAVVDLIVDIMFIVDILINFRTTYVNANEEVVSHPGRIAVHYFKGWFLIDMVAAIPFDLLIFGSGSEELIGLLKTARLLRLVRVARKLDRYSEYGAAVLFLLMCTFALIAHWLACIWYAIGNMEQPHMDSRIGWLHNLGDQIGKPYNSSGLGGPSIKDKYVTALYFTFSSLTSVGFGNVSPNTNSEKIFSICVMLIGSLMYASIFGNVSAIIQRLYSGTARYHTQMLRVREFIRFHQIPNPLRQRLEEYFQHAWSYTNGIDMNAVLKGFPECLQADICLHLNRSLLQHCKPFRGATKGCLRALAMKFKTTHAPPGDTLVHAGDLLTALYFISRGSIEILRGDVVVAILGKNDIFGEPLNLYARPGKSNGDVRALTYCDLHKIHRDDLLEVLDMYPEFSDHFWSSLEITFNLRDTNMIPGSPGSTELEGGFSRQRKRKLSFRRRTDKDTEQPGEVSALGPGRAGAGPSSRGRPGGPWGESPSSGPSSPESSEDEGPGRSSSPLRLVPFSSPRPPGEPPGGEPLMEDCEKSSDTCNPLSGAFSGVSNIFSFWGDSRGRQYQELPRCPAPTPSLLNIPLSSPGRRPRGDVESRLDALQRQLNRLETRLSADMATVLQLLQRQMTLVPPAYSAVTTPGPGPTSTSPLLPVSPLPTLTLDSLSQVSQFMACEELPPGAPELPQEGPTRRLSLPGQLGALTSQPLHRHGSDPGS

Compound	hERG current change (%, negative = inhibition) at 10uM
Cc1cc(C(C)(C)C)cc(S(=O)(=O)Nc2ccc(C(=O)O)cc2)c1C	12.7%
C#CCOC(=O)/C(=C/C=C/c1ccccc1)NC(=O)c1ccccc1	-20%
CCOc1cccc(-c2nc(C(N)=O)c3[nH]c(=O)n(-c4cccc(Cl)c4)c3n2)c1O	20.3%
CC1CC(C)(C)NC(=S)N1CCC(=O)NCCc1ccc(Cl)cc1 (stereo not shown)	-24.5%
CCOC(=O)c1sc(NS(=O)(=O)c2ccc(F)cc2)nc1C	9.64%
O=C(C1CC1)N1CCN(c2ccc(F)cc2)CC1	13%
O=C(Nc1nnc(-c2ccccc2)o1)NC1CCCCC1	14.3%
COc1ccc(OC)c(S(=O)(=O)N2CCCC(N3CCN(c4ccccc4)CC3)C2)c1 (stereo not shown)	6.65%
Cc1oc(-c2ccccc2Cl)nc1CS(=O)CC(=O)NCc1ccccc1Cl (stereo not shown)	-12.9%
CC(=O)c1cccc(NC(=O)Nc2cccs2)c1	5.62%
CCS(=O)(=O)c1ccc(O)c(NC(=O)CC2(CC(=O)O)CCCC2)c1	7.15%
Cc1ccc(S(=O)(=O)N(C)c2nonc2C)cc1	-15.6%
CC(C)C(NC(=O)COc1ccccc1)C(=O)O (stereo not shown)	-2.4%
COc1ccc(C(c2sc3nc(C)nn3c2O)N2CCN(CCO)CC2)cc1OC (stereo not shown)	2.57%
O=C(COc1cccnc1[N+](=O)[O-])Nc1ccccc1Sc1ccccc1	-16.5%
Cc1sc2nc(N3CCOCC3)[nH]c(=O)c2c1-c1ccccc1	-5.87%
COc1ccc2noc3c2c1C(=O)c1ccccc1-3	1.04%
O=C(Cn1cncn1)N/N=C/c1c2ccccc2cc2ccccc12	-9.2%
Cc1nc2nc(C)c(CCC(=O)NCCCN3CCN(c4cccc(Cl)c4)CC3)c(C)n2n1.Cl	-32.4%
CC(C)(C)c1ccc2c(c1)OC(C(=O)N/N=C\c1ccc[nH]1)CO2 (stereo not shown)	-29.6%

Compound	hERG current change (%, negative = inhibition) at 10uM
Cc1cc(Cl)c(S(=O)(=O)NC(C)C)cc1OCC(N)=O	9.61%
CCOC(=O)C1=C(CC)Nc2ccccc2N=C1NC(=O)Nc1ccc(Cl)c(Cl)c1	-4.88%
CCC(=O)N1N=C(c2cccs2)CC1c1ccc(C)cc1 (stereo not shown)	2.52%
COc1c[nH]n(C2CCCCC2)c(=O)c1=O	1.26%
CC(=O)C1C(c2cccc(Oc3ccccc3)c2)NC(=O)NC1(O)C(F)(F)F (stereo not shown)	-2.85%
O=C(COc1ccc(Cl)cc1Cl)NCc1ccco1	0.837%
CCOC(=O)C1(Cc2ccccc2)CCCN(C(=O)c2ccc(-n3ccnc3)cc2)C1 (stereo not shown)	-58.4%
CCCc1nc2sc3ccccc3c(=O)c2c(=O)n1CCOC	9.8%
CCOC(=O)c1ccc(NC(=O)Cc2cccs2)cc1	-7.39%
CC1CCC/C(=C\c2ccc(O)cc2)C1=O (stereo not shown)	-0.914%
COc1ccc2nc(N3CCC(C)CC3)c(C#N)cc2c1	22.5%
O=[N+]([O-])c1ccc(Cl)c(CN2CCCCCC2)c1	-2.55%
CCCCNC(=O)c1ccccc1NS(=O)(=O)c1ccc2c(c1)OCCO2	0.757%
CCCN1CNC(=S)N(c2ccccc2C)C1	12.5%
CCN1CCN(c2nc(N(C)c3ccccc3)nc(N)c2[N+](=O)[O-])CC1	4.31%
CC1CCCC(NC(=O)COC(=O)c2cccc(S(=O)(=O)N3CCCCC3)c2)C1C (stereo not shown)	-2.73%
COCCCNc1nc2ccccc2[nH]c1=O	39.2%
O=C(CSc1ccccc1)N1CCN(S(=O)(=O)c2ccccc2)CC1	-4.9%
CN(C)c1ccc(CN2CCCCC2)cc1	14.9%
COC(=O)c1cccnc1NC(=S)NNC(=O)c1ccccc1	21.2%

Compound	hERG current change (%, negative = inhibition) at 10uM
COc1ccccc1CCNC(=O)C(=O)NCC1OCCN1S(=O)(=O)c1ccc(Br)cc1 (stereo not shown)	-25.6%
CCCOc1ccc(/C=N/Nc2ccccc2[N+](=O)[O-])c(OCCC)c1	-4.51%
Cc1ccc2cc(CN(Cc3ccco3)C(=S)NCC3CCCO3)c(=O)[nH]c2c1 (stereo not shown)	-26.3%
CCc1[nH]c(=O)c(C#N)c2c1CCCC2	-5.05%
COC(=O)c1cc(NC2c3ccccc3C(=O)N2c2ccc(Cl)cn2)cc(C(=O)OC)c1 (stereo not shown)	19.5%
CC(C)c1ccc(-c2noc(C3CCCN(S(C)(=O)=O)C3)n2)cc1 (stereo not shown)	0.5%
O=C(O)c1cc2c(cn1)[nH]c1ccccc12	10.9%
O=C(Cc1ccccc1)NCC(=O)Nc1ccccc1Br	16.8%
CCC(=O)N1CCc2cc(Br)cc(S(=O)(=O)C3(C(=O)OC)CC3)c21	7.97%
CCc1ccc(CN2CCC(n3nccc3NC(=O)c3cccc(F)c3)CC2)cc1	-75.3%
O=C(NCc1ccc2c(c1)OCO2)c1nc(Cn2ccc([N+](=O)[O-])n2)no1	-19.1%
COC(CNC(=O)CN1CCN(Cc2ccc(F)cc2Cl)C1=O)OC	2.5%
O=C(NCCO)/C(=C\c1cccc([N+](=O)[O-])c1)NC(=O)c1ccco1	6.73%
CC(=O)c1cn(CC(=O)NCc2ccco2)c2ccccc12	3.47%
Cc1ccccc1C(=O)N1CCN(c2ccc([N+](=O)[O-])c(NCc3ccco3)c2)CC1	-8.95%
NC(=O)CC(NC(=O)c1ccccc1)c1ccc(NCCc2cccc(F)c2)c([N+](=O)[O-])c1 (stereo not shown)	14.5%
COc1ccc(NC(=O)CN(C)C(=O)CSC(c2ccccc2)c2ccccc2)cc1	-9.06%
Cn1cncc1C#Cc1ccc2cc(CCCO)oc(=O)c2c1	19.9%
